Laboratory results taken from PubChem BioAssay AID463173 (ICCB-Longwood Screening Facility, Harvard Medical School, 2010).
Among all 52,000 compounds or so, about 1,700 (3.3%) were called active. Cut-off read from the data, not from the text of the source: active = survival mostly below about 52% (no sharp cut-off); inactive = mostly above about 56%. The list shows a part of the results.

What follows are compounds tested on Wild type (assay: S. aureus survival, RN4220 and DeltatarO strains – OD600, teichoic acid synthesis inhibitors, primary screen (AID 463173)). Conditions: S. aureus RN4220 wild type/DeltatarO growth, OD600, 18 h, stronger effect = lower value; concentration not given here unless noted.

| Compound | survival |
| --- | --- |
| Cc1ccc(C)c(CN2C(=O)c3ccccc3Sc3ccc(C(=O)N4CCC5(CC4)OCCO5)cc32)c1 | active: 14% |
| Cc1cccc(CN2C(=O)CN=C(c3ccccc3Cl)c3cc(Cl)ccc32)c1 | inactive: 73% |
| COc1ccc(N=C2SCCCN2C)cc1 | inactive: 91% |
| C=CCn1c(C)c(C(=O)OCC)c2cc(O)ccc21 | inactive: 110% |
| O=C1CC(c2cccnc2)Nc2ccc3ccccc3c21 (centres undefined) | inactive: 98% |
| Cc1ccc2scc(N3CCN(C)CC3)c(=O)c2c1 | inactive: 136% |
| COc1ccc(C=C(C#N)C#N)c2ccccc12 | inactive: 101% |
| Cc1ccc(-n2c(/C=C/c3ccccc3)nc3ccccc3c2=O)cc1C | inactive: 74% |
| CCCCn1c(=O)c(C(=O)NC)c(O)c2ccccc21 | inactive: 112% |
| O=c1c2ccccc2nc(CN2CCOCC2)n1-c1ccccc1F | inactive: 116% |
| CC(=O)c1ccc(NC(=O)c2sc3nc4c(cc3c2N)N2CCC4CC2)cc1 | inactive: 95% |
| Cc1ccc(-n2c(/C=C/c3cccc(C(F)(F)F)c3)nc3ccccc3c2=O)cc1 | inactive: 71% |
| CCC(CC)NC1CCCCC1OC (centres undefined) | inactive: 117% |
| NC(=O)c1ccc(NC(=O)c2cccn(Cc3ccccc3)c2=O)cc1 | inactive: 89% |
| CCOc1ccc(CN2C(=O)c3ccccc3Sc3ccc(C(=O)N4CCC5(CC4)OCCO5)cc32)cc1 | inactive: 85% |
| Cc1c(C(c2ccc(O)cc2)c2c(O)c3ccccc3oc2=O)c(=O)n(-c2ccccc2)n1C (centres undefined) | inactive: 47% |
| CCSc1nnc(NC(=O)c2cccn(Cc3ccc(Cl)cc3)c2=O)s1 | inactive: 45% |
| COc1ccccc1CNCCc1ccccc1 | inactive: 102% |
| N#CC1=C(N)Oc2c(c(=O)oc3ccccc23)C1C1CC=CCC1 (centres undefined) | inactive: 113% |
| Cc1cccc(-n2c(/C=C/c3cccc4ccccc34)nc3ccccc3c2=O)c1 | inactive: 74% |
| O=c1c2ccccc2nc(/C=C\c2cccc(Br)c2)n1-c1ccc(O)cc1 | inactive: 108% |
| COc1ccc(NC(=O)c2cccn(Cc3ccc(Cl)cc3)c2=O)c(OC)c1 | inactive: 66% |
| N#Cc1cc2c(nc1SCC(=O)Nc1ccc(Cl)c(C(F)(F)F)c1)C1CCN2CC1 | active: 2% |
| O=C1NC(=O)C(C(CC(=O)c2ccccc2)c2ccccc2)C(=O)N1 (centres undefined) | inactive: 116% |
| O=C(COc1ccccc1)N1CCN(Cc2ccc(Br)cc2)CC1 | inactive: 100% |

| Compound | survival |
| --- | --- |
| O=C(/C=C/c1ccco1)C1C(=O)c2ccccc2C1=O | inactive: 111% |
| CC1CN(C)C(C)(C)CC1(O)c1ccccc1 (centres undefined) | inactive: 105% |
| O=C(Nc1ccccc1C(F)(F)F)c1cccn(Cc2ccccc2)c1=O | inactive: 69% |
| O=C(COc1ccccc1[N+](=O)[O-])N1CCN(CCc2ccccn2)CC1 | inactive: 81% |
| Cc1ccccc1-n1c(/C=C/c2ccccc2F)nc2ccccc2c1=O | active: 7% |
| NC(=O)CN1C2CCC1CC(NC(=O)C1CC1)C2 (centres undefined) | inactive: 103% |
| Cc1ccc(-n2c(/C=C/c3cccc4ccccc34)nc3ccccc3c2=O)cc1 | inactive: 73% |
| COCCNC(=O)CN1C2CCC1CC(O)(c1cccnc1)C2 (centres undefined) | inactive: 121% |
| CCOC(=O)c1ccc(NC(=O)CSc2nc3c(cc2C#N)N2CCC3CC2)cc1 | inactive: 84% |
| S=c1[nH]nc(CCN2CCN(c3ccc(Cl)cc3)CC2)n1-c1ccccc1 | inactive: 111% |
| Cc1cccc(Cn2cccc(C(=O)Nc3nc4ccccc4s3)c2=O)c1 | inactive: 127% |
| COc1cccc(-n2c(/C=C/c3cccc(C)c3)nc3ccccc3c2=O)c1 | active: 0% |
| O=C1NC(=O)C(=Cc2ccc(N3CCOCC3)cc2)C(=O)N1 | inactive: 86% |
| Cc1cccc(-n2c(CC3C(=O)Nc4ccc(C)cc43)nc3ccccc3c2=O)c1 (centres undefined) | inactive: 50% |
| O=C(CN1CCC(N2CCCCC2)CC1)N1CCC2(CC1)OCCO2 | inactive: 92% |
| Cc1ccc(NC(=O)c2cccn(Cc3ccccc3C)c2=O)c(C)c1 | inactive: 70% |
| CSc1nnc(CCN)n1C | inactive: 115% |
| CN1C(=O)C(C(=O)O)C2CC1Oc1ccccc12 (centres undefined) | inactive: 131% |
| CC(C)c1nn2c(=O)cc(COC(=O)Cc3ccccc3)nc2s1 | inactive: 71% |
| O=C1CN=C(c2ccccc2Cl)c2cc(Cl)ccc2N1Cc1cccc(Cl)c1 | inactive: 128% |
| COc1ccc(-n2c(/C=C\c3ccccc3F)nc3ccccc3c2=O)cc1OC | inactive: 72% |
| Nc1c(C(=O)Nc2ccc(Cl)c(C(F)(F)F)c2)sc2nc3c(cc12)N1CCC3CC1 | active: 1% |
| COc1cccc(-n2c(/C=C/c3ccccc3O)nc3ccccc3c2=O)c1 | inactive: 20% |
| CCCCCc1nc2ccccc2c(=O)n1-c1ccc(C)cc1 | inactive: 70% |
| Cc1ccccc1-n1nc(C)c2c1NC(=O)CSC2c1ccc(N(C)C)cc1 (centres undefined) | inactive: 89% |

| Compound | survival |
| --- | --- |
| CC(C)(C)C(=O)c1cn(CC(=O)NCc2ccco2)c2ccccc12 | inactive: 119% |
| COC(=O)C1=C(N)Oc2cc(C)oc(=O)c2C12C(=O)Nc1ccccc12 (centres undefined) | inactive: 95% |
| Cc1ccc(CN2C(=O)c3ccccc3Sc3ccc(C(=O)N4CCC5(CC4)OCCO5)cc32)cc1 | inactive: 75% |
| CC1(C)CC(=O)C(C2(O)C(=O)NC(=O)NC2=O)=C(O)C1 | inactive: 118% |
| Cc1ccccc1Cn1cccc(C(=O)Nc2nc3ccccc3s2)c1=O | inactive: 74% |
| N#CC(C#N)=Cc1sc2ccccc2c1Cl | inactive: 103% |
| CCCCc1nn2c(=O)cc(COC(=O)Cc3ccccc3)nc2s1 | inactive: 84% |
| O=C1CSC2N1CCNC21CCCCC1 (centres undefined) | inactive: 103% |
| C=Cc1ccc(Cn2c(C)c(CNCCc3cc(OC)ccc3OC)c(C(=O)O)c2C)cc1 | inactive: 81% |
| CN1CCCC(C(=O)c2ccccc2)C1 (centres undefined) | inactive: 108% |
| Cc1cc(C=C(C#N)C#N)c(C)n1C1CCCC1 | inactive: 118% |
| O=C(Nc1cc(C(F)(F)F)cc(C(F)(F)F)c1)c1cccn(Cc2ccccc2Cl)c1=O | inactive: 89% |
| COc1cc(NC(=O)CN2C3CCC2CC(O)(c2cccnc2)C3)cc(OC)c1 (centres undefined) | inactive: 104% |
| CC(C)(C)c1ccc(C(=O)Nc2ccc(Cl)cc2C(=O)c2ccccc2)cc1 | active: 3% |
| c1cc2c(cc1N1CCNCC1)OCCO2 | inactive: 115% |
| OCC1(CO)COC(c2cccnc2)N1 (centres undefined) | inactive: 109% |
| CCC1CN(C)CCC1(O)c1ccccc1 (centres undefined) | inactive: 103% |
| CCc1nc2ccccc2c(=O)n1-c1cccc(OC)c1 | inactive: 115% |
| O=C(COc1cc(Cl)ccc1Cl)Nc1ccc(Cl)cc1C(=O)c1ccccc1 | inactive: 75% |
| Cc1cccc(CN2CC=C(c3noc(CCC(=O)Nc4ccc(C)c(F)c4)n3)CC2)c1 | inactive: 82% |
| Fc1ccccc1CN1CCN(Cc2ccccc2F)CC1 | inactive: 119% |
| Cc1ccc2c(c1)C(Cc1nc3ccccc3c(=O)n1-c1ccc(Br)cc1)C(=O)N2 (centres undefined) | inactive: 90% |
| N#CSCC(=O)N1c2ccccc2CCc2ccccc21 | inactive: 41% |
| O=C(COc1ccccc1F)N1CCN(Cc2cc(=O)n3nc(-c4ccccc4Cl)sc3n2)CC1 | inactive: 136% |
| O=C(Cn1ncc2c([nH]c3ccccc32)c1=O)NCCCN1CCN(c2ccccc2)CC1 | inactive: 78% [screened at 18.75 µg/mL (by protocol)] |

| Compound | survival |
| --- | --- |
| Cc1ccc(-n2c(=O)[nH]c3ccc(Br)cc3c2=O)cc1 | inactive: 67% |
| Cc1cccc(OCC(=O)N2CCN(CCc3ccccn3)CC2)c1 | inactive: 86% |
| COc1ccc(NC2=NCC(C)S2)cc1 (centres undefined) | inactive: 113% |
| CCOc1nc(NCc2ccco2)nc(N2CC3CC(C2)c2cccc(=O)n2C3)n1 (centres undefined) | inactive: 104% |
| O=C(Nc1ccc(F)c([N+](=O)[O-])c1)c1cccn(Cc2ccccc2)c1=O | inactive: 115% |
| O=C(COc1ccc(C=C2C(=O)NC(=O)NC2=O)cc1)NCC1CCCO1 (centres undefined) | inactive: 109% |
| CC(C)(C)c1nc(N2CCN(C(=O)c3ccco3)CC2)c2nnn(Cc3ccccc3Cl)c2n1 | inactive: 109% |
| N#CC1=C(N)Oc2c(c(=O)oc3ccccc23)C1Cc1ccccc1 (centres undefined) | inactive: 97% |
| CCC(CC)C(=O)NC1CCSC1=O (centres undefined) | inactive: 111% |
| CC(=O)N(C1=NCCCS1)c1ccc(C)cc1 | inactive: 103% |
| CCCCCCc1cc(O)c2c(c1)OC(C)(C)C1=C2CCN(C)C1 | inactive: 105% |
| Cc1ccc(Cn2cccc(C(=O)Nc3ccc4c(c3)OCO4)c2=O)cc1 | inactive: 70% |
| COc1cccc(NC(=O)Cn2cc(C(=O)c3ccccc3)c3ccccc32)c1 | inactive: 64% |
| O=C1NC(=O)N(Cc2ccccc2)C(=O)/C1=C/c1ccc2c(c1)OCO2 | inactive: 77% |
| CCCOc1ccc(C2SCC(=O)Nc3c2c(C)nn3-c2cccc(C)c2)cc1OC (centres undefined) | inactive: 62% |
| CCN(CC)CCSc1nc2ccccc2c(=O)n1-c1ccc(Cl)cc1 | inactive: 130% |
| CN1C(=O)C(=C/C=C/c2ccccc2)C(=O)N(C)C1=O | inactive: 113% |
| Cc1cccc(Cn2cccc(C(=O)Nc3ccc4c(c3)OCCO4)c2=O)c1 | inactive: 90% |
| CCOc1ccc(CN(CCc2ccc3c(c2)OCO3)Cc2cccc(OC)c2)cc1 | inactive: 42% |
| COC(=O)C1(O)c2ccccc2-c2ccccc21 | inactive: 108% |
| CCN(CC)c1ccc(C=C(C#N)C#N)cc1 | inactive: 107% |
| CN(C)S(=O)(=O)c1ccc(N2CCNCC2)cc1 | inactive: 99% |
| COc1ccc(C)cc1NC(=O)N(Cc1ccc2c(c1)OCO2)C1CCN(Cc2ccccc2)CC1 | inactive: 73% |
| CCOc1ccc(NC(=O)Cn2cc(C(=O)c3ccccc3)c3ccccc32)cc1 | inactive: 72% |
